Assay results reported in the supplement of paper PMC4967469.

Key:
PAC-1 = compound: C=CCc1cccc(/C=N/NC(=O)CN2CCN(Cc3ccccc3)CC2)c1O [PAC-1]; assay: Viability of human cancer cell lines after 72 h of drug (GDSC screen); conditions: top dose 2.56 µM
Method: (§1)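 Human cancer cell lines in 384-well plates, medium with 10% serum, drug for 72 h over a 256-fold dose range (nine 2-fold or five 4-fold steps up to the top dose). Adherent lines were fixed and stained with the nucleic acid dye Syto60, suspension lines read with resazurin; signal relative to control wells, capped at 0 and 100%. One two-parameter sigmoid per drug and line, fitted in a mixed model over all curves with the slope shared within a line.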

BMS-708163 = compound: NC(=O)[C@@H](CCC(F)(F)F)N(Cc1ccc(-c2ncon2)cc1F)S(=O)(=O)c1ccc(Cl)cc1 [BMS-708163]; assay: as above; conditions: top dose 5 µM; screen: GDSC drug entry 1072; top dose inferred
Method: as §1

| Cell Line | AUC (PAC-1) | IC50 (PAC-1) | AUC (BMS-708163) | IC50 (BMS-708163) |
| --- | --- | --- | --- | --- |
| NCI-H2009 (lung adenocarcinoma, adherent) | 0.874 | > 2560 nM | 0.966 | > 5000 nM |
| NCI-H2023 (lung adenocarcinoma, adherent) | 0.931 | > 2560 nM | 0.98 | > 5000 nM |
| NCI-H2029 (small cell lung carcinoma, adherent) | 0.992 | > 2560 nM | 0.989 | > 5000 nM |
| NCI-H2030 (lung adenocarcinoma, adherent) | 0.897 | > 2560 nM | 0.938 | > 5000 nM |
| NCI-H2052 (mesothelioma, adherent) | 0.902 | > 2560 nM | 0.902 | > 5000 nM |
| NCI-H2085 (lung adenocarcinoma, adherent) | 0.935 | > 2560 nM | 0.987 | > 5000 nM |
| NCI-H2087 (lung adenocarcinoma, semi-adherent) | 0.911 | > 2560 nM | 0.986 | > 5000 nM |
| NCI-H2110 (non-small cell lung carcinoma, adherent) | 0.952 | > 2560 nM | 0.986 | > 5000 nM |
| NCI-H2122 (lung adenocarcinoma, adherent) | 0.914 | > 2560 nM | 0.944 | > 5000 nM |
| NCI-H2170 (lung squamous cell carcinoma, adherent) | 0.849 | 2060 nM | 0.985 | > 5000 nM |
| NCI-H2172 (non-small cell lung carcinoma, adherent) | 0.854 | > 2560 nM | 0.982 | > 5000 nM |
| NCI-H2291 (lung adenocarcinoma, adherent) | 0.977 | > 2560 nM | 0.944 | > 5000 nM |
| NCI-H2347 (lung adenocarcinoma, adherent) | 0.822 | 1940 nM | 0.959 | > 5000 nM |
| NCI-H2405 (lung adenocarcinoma, adherent) | 0.948 | > 2560 nM | 0.916 | > 5000 nM |
| NCI-H2444 (non-small cell lung carcinoma, adherent) | 0.976 | > 2560 nM | 0.988 | > 5000 nM |
| NCI-H2452 (mesothelioma, adherent) | 0.979 | > 2560 nM | 0.941 | > 5000 nM |
| NCI-H3122 (lung adenocarcinoma, adherent) | 0.901 | > 2560 nM | 0.938 | > 5000 nM |
| NUGC-3 (stomach, adherent) | 0.909 | > 2560 nM | 0.909 | > 5000 nM |
| NUGC-4 (stomach, adherent) | 0.957 | > 2560 nM | 0.981 | > 5000 nM |
| NY (osteosarcoma, adherent) | 0.966 | > 2560 nM | 0.958 | > 5000 nM |
| OAW-28 (ovary, adherent) | 0.976 | > 2560 nM | 0.948 | > 5000 nM |
| OAW-42 (ovary, adherent) | 0.97 | > 2560 nM | 0.97 | > 5000 nM |
| OE19 (oesophagus, adherent) | 0.964 | > 2560 nM | 0.954 | > 5000 nM |
| OE21 (oesophagus, adherent) | 0.819 | 2240 nM | 0.931 | > 5000 nM |

| Cell Line | AUC (PAC-1) | IC50 (PAC-1) | AUC (BMS-708163) | IC50 (BMS-708163) |
| --- | --- | --- | --- | --- |
| OE33 (oesophagus, adherent) | 0.901 | > 2560 nM | 0.979 | > 5000 nM |
| OSC-19 (head and neck, adherent) | 0.986 | > 2560 nM | 0.984 | > 5000 nM |
| OSC-20 (head and neck, adherent) | 0.958 | > 2560 nM | 0.981 | > 5000 nM |
| OVCAR-3 (ovary, adherent) | 0.809 | 1500 nM | 0.985 | > 5000 nM |
| OVCAR-5 (ovary, adherent) | 0.952 | > 2560 nM | 0.982 | > 5000 nM |
| OVCAR-8 (ovary, adherent) | 0.852 | 1670 nM | 0.969 | > 5000 nM |
| OVISE (ovary, adherent) | 0.957 | > 2560 nM | 0.933 | > 5000 nM |
| OVKATE (ovary, adherent) | 0.968 | > 2560 nM | 0.979 | > 5000 nM |
| OVMIU (ovary, adherent) | 0.855 | > 2560 nM | 0.889 | > 5000 nM |
| OVTOKO (ovary, adherent) | 0.77 | 1250 nM | 0.946 | > 5000 nM |
| P12-ICHIKAWA (T-cell lymphoblastic leukaemia, suspension) | 0.853 | 1340 nM | 0.994 | > 5000 nM |
| PA-1 (ovary, adherent) | 0.988 | > 2560 nM | 0.993 | > 5000 nM |
| PA-TU-8902 (pancreas, adherent) | 0.979 | > 2560 nM | 0.982 | > 5000 nM |
| PA-TU-8988T (pancreas, adherent) | 0.976 | > 2560 nM | 0.981 | > 5000 nM |
| PANC-02-03 (pancreas, adherent) | 0.957 | > 2560 nM | 0.975 | > 5000 nM |
| PANC-03-27 (pancreas, adherent) | 0.766 | 883 nM | 0.983 | > 5000 nM |
| PANC-04-03 (pancreas, adherent) | 0.927 | > 2560 nM | 0.978 | > 5000 nM |
| PANC-08-13 (pancreas, adherent) | 0.978 | > 2560 nM | 0.86 | > 5000 nM |
| PANC-10-05 (pancreas, adherent) | 0.924 | > 2560 nM | 0.962 | > 5000 nM |
| PC-3 (prostate, adherent) | 0.982 | > 2560 nM | 0.937 | > 5000 nM |
| PC-3 [JPC-3] (lung adenocarcinoma, adherent) | 0.981 | > 2560 nM | 0.975 | > 5000 nM |
| PC-14 (lung adenocarcinoma, adherent) | 0.961 | > 2560 nM | 0.951 | > 5000 nM |
| PCI-4B (head and neck, adherent) | 0.831 | 1510 nM | 0.984 | > 5000 nM |
| PCI-6A (head and neck, adherent) | 0.938 | > 2560 nM | 0.943 | > 5000 nM |

| Cell Line | AUC (PAC-1) | IC50 (PAC-1) | AUC (BMS-708163) | IC50 (BMS-708163) |
| --- | --- | --- | --- | --- |
| PCI-15A (head and neck, adherent) | 0.945 | > 2560 nM | 0.986 | > 5000 nM |
| PCI-30 (head and neck, adherent) | 0.982 | > 2560 nM | 0.887 | > 5000 nM |
| PCI-38 (head and neck, adherent) | 0.979 | > 2560 nM | 0.895 | > 5000 nM |
| PE/CA-PJ15 (head and neck, adherent) | 0.986 | > 2560 nM | 0.985 | > 5000 nM |
| PFSK-1 (medulloblastoma, adherent) | 0.961 | > 2560 nM | 0.895 | > 5000 nM |
| PL4 (pancreas, adherent) | 0.986 | > 2560 nM | 0.973 | > 5000 nM |
| PL18 (pancreas, adherent) | 0.966 | > 2560 nM | 0.969 | > 5000 nM |
| RCM-1 (large intestine, adherent) | 0.979 | > 2560 nM | 0.929 | > 5000 nM |
| RD (rhabdomyosarcoma, adherent) | 0.985 | > 2560 nM | 0.912 | > 5000 nM |
| RERF-GC-1B (stomach, adherent) | 0.844 | 2150 nM | 0.949 | > 5000 nM |
| RERF-LC-KJ (lung adenocarcinoma, adherent) | 0.813 | 1440 nM | 0.984 | > 5000 nM |
| RERF-LC-MS (lung adenocarcinoma, adherent) | 0.984 | > 2560 nM | 0.913 | > 5000 nM |
| RERF-LC-Sq1 (lung squamous cell carcinoma, adherent) | 0.965 | > 2560 nM | 0.921 | > 5000 nM |
| RH-41 (rhabdomyosarcoma, adherent) | 0.885 | 2010 nM | 0.992 | > 5000 nM |
| RKN (ovary, adherent) | 0.977 | > 2560 nM | 0.977 | > 5000 nM |
| RO82-W-1 (thyroid, adherent) | 0.935 | > 2560 nM | 0.973 | > 5000 nM |
| RPMI-2650 (head and neck, adherent) | 0.948 | > 2560 nM | 0.873 | > 5000 nM |
| RPMI-7951 (melanoma, adherent) | 0.98 | > 2560 nM | 0.985 | > 5000 nM |
| RT4 (bladder, adherent) | 0.985 | > 2560 nM | 0.987 | > 5000 nM |
| RT-112 (bladder, adherent) | 0.89 | > 2560 nM | 0.944 | > 5000 nM |
| RVH-421 (melanoma, adherent) | 0.975 | > 2560 nM | 0.96 | > 5000 nM |
| SAS (head and neck, adherent) | 0.982 | > 2560 nM | 0.89 | > 5000 nM |
| SAT (head and neck, adherent) | 0.942 | > 2560 nM | 0.926 | > 5000 nM |
| SBC-3 (small cell lung carcinoma, adherent) | 0.981 | > 2560 nM | 0.963 | > 5000 nM |

IC50 is the fitted dose that halves viability relative to control wells, and lower means more sensitive; where the fit passes the top or lowest dose, that dose stands as a limit. AUC, from the same fit, is the share of area under the viability curve across the 256-fold dose range; values near 1 show little effect. For part of these data: An inferred top dose was derived from the fitted curves, not read from the paper. For part of these data: Drugs with an entry number were screened twice under separate entries, and the two screens often disagree.
